The values that follow come from the RNAGym collection of RNA variant scans (doi:10.1073/pnas.2313332121).

The chains are these.
B1: TPR 5TU (parent)
chain: GGAUCUUCUCGAUCUAACAAAAAAGACAAAUCUGCCACAAAGCUUGAGAGCAUCUUCGGAUGCAGAGGCGGCAGCCUUCGGUGGCGCGAUAGCGCCAACGUUCUCAACUAUGACACGCAAAACGCGUGCUCCGUUGAAUGGAGUUUAUCAUG

Variants at the background level are over-represented here.

The variants in this data set derive from B1. Put plainly: polymerase ribozyme fitness, log enrichment relative to wild type (log ratio); higher = more active; in vitro selection for triplet polymerase activity. In outline: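 Mutant libraries of each subunit of a heterodimeric triplet polymerase ribozyme were built by PCR and transcribed. Each library went through one round of in vitro selection in triplicate: annealing with biotinylated primer, partner subunit and triplets, frozen incubation at −7 °C, gel excision of extended constructs, streptavidin-bead capture and RT-PCR. Input and output libraries were Illumina-sequenced; only genotypes with ≥10 input reads and ≥1 read per output were kept. Fitness is log2(genotype enrichment/wild-type enrichment), using inverse-variance-weighted replicate averages.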
On to C10U A21U A28U A40U U56C G70C U102A, for which the “polymerase ribozyme fitness (log ratio)” value is no more than -4.2.

Turning to G11C C43U C69U A91C A137C, the “polymerase ribozyme fitness (log ratio)” value is no more than -4.2.

Consider C10U G92U C95A C105A A107C G152A, for which the “polymerase ribozyme fitness (log ratio)” value is no more than -4.2.

As for G11A U55A, the “polymerase ribozyme fitness (log ratio)” value was -1.11.

Regarding C10U C18G A40G U56A C76A G141A A147C U148C, the “polymerase ribozyme fitness (log ratio)” value is no more than -4.2.

With G11A A20C A41C G48A A66C G71A C79U U102C, the “polymerase ribozyme fitness (log ratio)” value was no more than -4.2.

Turning to G11C C38U C76U U78G A97G G124U, the “polymerase ribozyme fitness (log ratio)” value was no more than -4.2.

In the case of G11C A40U C51U C85G A106G, the “polymerase ribozyme fitness (log ratio)” value is no more than -4.2.

Take C10U C57G C85A: the “polymerase ribozyme fitness (log ratio)” value is no more than -4.2.

For the variant C10G G11A A29U A47C A52C G58C C72U C79A G81U C85A U109G, the “polymerase ribozyme fitness (log ratio)” value was no more than -4.2.

For C10U C87U C96U, the “polymerase ribozyme fitness (log ratio)” value was no more than -4.2.

As to G11C G42U G48A U102C A110C, the “polymerase ribozyme fitness (log ratio)” value is no more than -4.2.

In the case of G11U A21C A29G C32A C87A C103G C118U U134G U146G, the “polymerase ribozyme fitness (log ratio)” value was no more than -4.2.

As for C10U A26U G42A A47U A89C C96U A107U G112C, the “polymerase ribozyme fitness (log ratio)” value was no more than -4.2.

As for G11C G86A C96U A138C G140A, the “polymerase ribozyme fitness (log ratio)” value is no more than -4.2.

Take G11C A17C C18A A21U U53A G65C C76G A98U C132U A142U: the “polymerase ribozyme fitness (log ratio)” value was no more than -4.2.

As for C10U G59U C79U C87U G112C U146A, the “polymerase ribozyme fitness (log ratio)” value was no more than -4.2.

As to G11C U61A U77A C95A, the “polymerase ribozyme fitness (log ratio)” value is no more than -4.2.

As for C10U A17C A39U G92A U139G, the “polymerase ribozyme fitness (log ratio)” value is no more than -4.2.

For C10U U78A G86A A107G G124A G140A G141C, the “polymerase ribozyme fitness (log ratio)” value is no more than -4.2.

With G11U A12G A49C G50A C93A G124A, the “polymerase ribozyme fitness (log ratio)” value was no more than -4.2.

On to C10U C14G C27A A41C G92A C103U A113G A115G G117A G140C, for which the “polymerase ribozyme fitness (log ratio)” value is no more than -4.2.

Turning to G11A U15C A16G C93A A120U U148G, the “polymerase ribozyme fitness (log ratio)” value is no more than -4.2.

As for G11C A26U C57G C69G, the “polymerase ribozyme fitness (log ratio)” value was no more than -4.2.

As for C10U G42C A49C A66G C79G A91G C125A A147G A150C, the “polymerase ribozyme fitness (log ratio)” value was no more than -4.2.

As for C10U G58A U61A G84U U148G, the “polymerase ribozyme fitness (log ratio)” value was no more than -4.2.

In the case of G11C A24G U45A G80C G86U A89C C99U U101G, the “polymerase ribozyme fitness (log ratio)” value is no more than -4.2.

For the variant G11A U55A A73G, the “polymerase ribozyme fitness (log ratio)” value was -1.2.

Regarding C10U A23U A39U G86A G92A C105G A142U, the “polymerase ribozyme fitness (log ratio)” value is no more than -4.2.

For the variant G11A A21G C38U G94A A107U C114U, the “polymerase ribozyme fitness (log ratio)” value is no more than -4.2.

In the case of G11A A23U G83U A91G U135A, the “polymerase ribozyme fitness (log ratio)” value is no more than -4.2.

Regarding G11C C72U U90C C93A U104A U127A, the “polymerase ribozyme fitness (log ratio)” value is no more than -4.2.

As to C10U U135A G141A C149G, the “polymerase ribozyme fitness (log ratio)” value is no more than -4.2.

Turning to C10U C57U G59A C93A G117U, the “polymerase ribozyme fitness (log ratio)” value was no more than -4.2.

With G11U A16U A17C G133C U134A, the “polymerase ribozyme fitness (log ratio)” value is no more than -4.2.

Turning to G11U A22C C35U U53G C69A C93A C103U, the “polymerase ribozyme fitness (log ratio)” value is no more than -4.2.

Regarding C10U C14G A23G C51U G58A A66C G86A A107G U134C, the “polymerase ribozyme fitness (log ratio)” value was no more than -4.2.

Take C10U C32G G42U G81C C108G G128A C131A A138U: the “polymerase ribozyme fitness (log ratio)” value was no more than -4.2.

C10U A49U A142C: the “polymerase ribozyme fitness (log ratio)” value was no more than -4.2.

Take C10U A91U C103U U127C: the “polymerase ribozyme fitness (log ratio)” value is no more than -4.2.

Regarding G11C A30U C95A C108G U148A, the “polymerase ribozyme fitness (log ratio)” value was no more than -4.2.

G11U A12U A16C U55A C99A: the “polymerase ribozyme fitness (log ratio)” value is no more than -4.2.

On to C10G C75U, for which the “polymerase ribozyme fitness (log ratio)” value is -3.87.

In the case of C10U A20C A28U G84A U111A, the “polymerase ribozyme fitness (log ratio)” value was no more than -4.2.

Consider G11A C57U A60G C85U C103G U151C, for which the “polymerase ribozyme fitness (log ratio)” value is no more than -4.2.

As for G11A G62C U90G C96U, the “polymerase ribozyme fitness (log ratio)” value is no more than -4.2.

As to C10U G84U, the “polymerase ribozyme fitness (log ratio)” value was -4.13.

Take C10U A40C U56A G92U A150G: the “polymerase ribozyme fitness (log ratio)” value is no more than -4.2.

C10U C18G A19C A40U C87G G88U: the “polymerase ribozyme fitness (log ratio)” value is no more than -4.2.

In the case of G11A G34A G86A C129G U134G G141C G152U, the “polymerase ribozyme fitness (log ratio)” value was no more than -4.2.

Turning to C10U A52C G84A U101C C103U A142U, the “polymerase ribozyme fitness (log ratio)” value is no more than -4.2.

As to G11C A41U C75A C93U, the “polymerase ribozyme fitness (log ratio)” value is no more than -4.2.

As to C10U A16C U44G C79A G84A U111G, the “polymerase ribozyme fitness (log ratio)” value is no more than -4.2.

Consider C10U A22C A60G C87U G88U, for which the “polymerase ribozyme fitness (log ratio)” value was no more than -4.2.

C10U A12U A19G A37G U44G U55A A150G: the “polymerase ribozyme fitness (log ratio)” value was no more than -4.2.

On to C10U G11A C14G A26G C93G C114G A115U U148A, for which the “polymerase ribozyme fitness (log ratio)” value is no more than -4.2.

Regarding G11A C51U G81C G92A U151A, the “polymerase ribozyme fitness (log ratio)” value is no more than -4.2.

C10U A24G G50U C76A: the “polymerase ribozyme fitness (log ratio)” value was no more than -4.2.

With C10U U151G, the “polymerase ribozyme fitness (log ratio)” value was no more than -4.2.

As to C10U C27A A28C G84U C87A C103A C123G, the “polymerase ribozyme fitness (log ratio)” value is no more than -4.2.

Take C10U C93U A110U: the “polymerase ribozyme fitness (log ratio)” value is no more than -4.2.

As to G11C A47G U53G C93G U111C A137C U146G, the “polymerase ribozyme fitness (log ratio)” value is no more than -4.2.

With G11C A29U U78A C95U, the “polymerase ribozyme fitness (log ratio)” value is no more than -4.2.

Consider C10G U61A C93A U139A, for which the “polymerase ribozyme fitness (log ratio)” value was no more than -4.2.

Regarding C10U U102A A106U C132G, the “polymerase ribozyme fitness (log ratio)” value is no more than -4.2.

As for C10U C57A A60U C95U C105U A120U, the “polymerase ribozyme fitness (log ratio)” value was no more than -4.2.

In the case of C10U A29C G59C C125U G140U, the “polymerase ribozyme fitness (log ratio)” value is no more than -4.2.

On to C10G G48A, for which the “polymerase ribozyme fitness (log ratio)” value was no more than -4.2.

On to G11C U55A C76G G140U, for which the “polymerase ribozyme fitness (log ratio)” value was no more than -4.2.

For G11C U31C A37C A39C A119G A142C, the “polymerase ribozyme fitness (log ratio)” value is no more than -4.2.

As to C10G G50A C57A C96U U109C, the “polymerase ribozyme fitness (log ratio)” value was no more than -4.2.

As for G11A A20U A40G C87U U139G, the “polymerase ribozyme fitness (log ratio)” value is no more than -4.2.

As to C10G G50U C54U U77C C95U A107G G141A U144A, the “polymerase ribozyme fitness (log ratio)” value was no more than -4.2.

With C10U C18U A23G A24C C51U U61A C87U C93U C95U G126C U146G, the “polymerase ribozyme fitness (log ratio)” value was no more than -4.2.

Take C10U C57A G83C G141A: the “polymerase ribozyme fitness (log ratio)” value was no more than -4.2.

G11C G34C G65U: the “polymerase ribozyme fitness (log ratio)” value was no more than -4.2.

As for G11A A21C A40C C76A C85U G140C, the “polymerase ribozyme fitness (log ratio)” value was no more than -4.2.

Take C10G C75G C96U A120C: the “polymerase ribozyme fitness (log ratio)” value is no more than -4.2.

Take C10U C14G A19G A24U U33C U61G G86A C116A A120C: the “polymerase ribozyme fitness (log ratio)” value was no more than -4.2.

C10G G70C C87A G140U: the “polymerase ribozyme fitness (log ratio)” value was no more than -4.2.

Take G11U A16U A22U A29U G58A G92C C118U A119U U145A: the “polymerase ribozyme fitness (log ratio)” value is no more than -4.2.

As for C10G G92A G152C, the “polymerase ribozyme fitness (log ratio)” value was no more than -4.2.

C10U A49C C85A: the “polymerase ribozyme fitness (log ratio)” value was no more than -4.2.

As for G11C A41G C76U C93G A106G A122G C129A G141U, the “polymerase ribozyme fitness (log ratio)” value is no more than -4.2.
